About 290 (0.32%) of roughly 91,000 compounds were called active. Inconclusive results, whose numbers are uncertain, are shown with a selection of clear calls. Calls follow the shape of the dose curve; as a rule, active = well fitted inhibition curve with a large enough effect; inconclusive = small, poorly fitted or top-dose-only effect; inactive = no such curve, though single readings can be large or run the other way. Potencies of inconclusive entries are doubtful fits and often do not repeat.
target: Single-stranded DNA cytosine deaminase (Homo sapiens) (UniProt Q9GZX7); test: Primary qHTS assay for inhibitors of Activation Induced Cytidine Deaminase (AID): AID signal; details: AID deamination FRET fluorescence, UDG-coupled, 4 h; series mostly up to 115 µM; also: nearly all actives have a fitted effect of over 25% in size
Potency is read from the fitted curve at half-maximal effect; tags tell the direction and shape of the fitted curve.

Sequence of UniProt Q9GZX7 (Q9GZX7 whole entry, looked up): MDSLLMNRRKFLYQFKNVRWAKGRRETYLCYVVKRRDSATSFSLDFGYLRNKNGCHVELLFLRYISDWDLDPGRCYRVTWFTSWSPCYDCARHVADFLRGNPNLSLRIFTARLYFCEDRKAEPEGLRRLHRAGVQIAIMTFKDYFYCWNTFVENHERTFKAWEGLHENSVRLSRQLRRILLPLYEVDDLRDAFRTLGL

Structure (SMILES) | Potency
Cc1cccc(NC(=O)CSc2nc3ccccc3c3nc(CCn4cncc4C)nn23)c1 | inconclusive: 89.1 µM [inhibitor, single point]
COc1ccc(OC)c(C(=O)c2oc3cc(NC(=O)C4CC4)ccc3c2C)c1 | inactive
Cc1ccccc1-c1nc(NC(=O)CSc2ncnc3sc4c(c23)CCCC4)ns1 | inconclusive: 39.8 µM [inhibitor, single point]
Cc1c(C)c2ccc(OCC(=O)NCc3ccc(S(N)(=O)=O)cc3)c(C)c2oc1=O | inconclusive: 79.4 µM [inhibitor, partial curve]
COc1cccc(N2CCN(C(=O)c3cnc4c(C)cccn4c3=O)CC2)c1 | inconclusive: 89.1 µM [inhibitor, single point]
CCc1ccc(OCC(=O)NCC(c2ccc(Cl)cc2)N2CCOCC2)cc1 (centres undefined) | inconclusive: 28.2 µM [inhibitor, full curve, poor fit]
COCCCNCc1c2ccccc2c(Cl)c2ccccc12 | inactive
COc1ccc(S(=O)(=O)N2CCC(c3nnc(-c4ccccc4C)o3)CC2)c(OC)c1 | inconclusive: 22.4 µM [inhibitor, partial curve, poor fit]
Cc1noc2ncnc(N3CCCC(C(=O)NCCC(C)C)C3)c12 (centres undefined) | inconclusive: 89.1 µM [inhibitor, single point]
O=C(N/N=C/c1ccc(C(F)(F)F)cc1)c1cccs1 | inactive
CCCn1c(CNC(=O)c2cc(OC)c(OC)c(OC)c2)nc2ccccc21 | inconclusive: 89.1 µM [inhibitor, single point]
CCOc1cc(C2c3c(oc4ccccc4c3=O)C(=O)N2c2ccccn2)ccc1O (centres undefined) | inconclusive: 22.4 µM [inhibitor, single point]
Cc1cc2nc(/C(C#N)=C/c3coc4ccccc4c3=O)[nH]c2cc1C | inactive
Cc1ccccc1CNC(=O)Nc1ccc2c(c1)N(C)C(=O)c1ccccc1S2 | inconclusive: 20 µM [inhibitor, full curve, poor fit]
CCN(CC)c1cc(C)c2cc(NC(=O)c3ccc(F)cc3Cl)ccc2n1 | inconclusive: 79.4 µM [inhibitor, single point]
Cc1ccc2nc(C)c(C(=O)N3CCN(S(=O)(=O)c4ccccc4)CC3)cc2c1 | inactive
O=C(CSc1nc2c([nH]c3ccccc32)c(=O)n1-c1ccccc1)N1CCCCCC1 | inconclusive: 31.6 µM [inhibitor, partial curve, poor fit]
COc1ccc(C(=O)NCC(c2cccnc2)N2CCc3ccccc32)cc1OC (centres undefined) | inconclusive: 50.1 µM [inhibitor, partial curve, poor fit]
CCOC(=O)c1cc(-c2ccccc2)n(-c2cccc(C(=O)Nc3cccc(C(C)=O)c3)c2)c1C | inconclusive: 15.8 µM [inhibitor, partial curve, poor fit]
CCN(C(=O)C(C)OC(=O)c1cc(=O)c2ccccc2o1)c1ccccc1 (centres undefined) | inactive
CCOC(=O)COc1ccc2c(C)c(CC(=O)OC)c(=O)oc2c1 | inactive
CC12CCCC(C(N)=O)(CCC1)C2 | inactive

Structure (SMILES) | Potency
CCCCN(CCCNC(=O)c1c(C)oc2nc[nH]c(=O)c12)Cc1ccccc1 | inconclusive: 79.4 µM [inhibitor, partial curve, poor fit]
COc1ccc(CNC(=O)c2cnn(-c3ccc(F)cc3)c2-n2cccc2)cc1 | inconclusive: 89.1 µM [inhibitor, single point]
O=C(COC(=O)c1cc(=O)c2ccccc2o1)NC1CCCCCC1 | inactive
CCN(CC)c1ccc(-c2nc(-c3ccco3)no2)cc1[N+](=O)[O-] | inconclusive: 12.6 µM [inhibitor, full curve, poor fit]
CCCCC1CCC(C(=O)N2CC(=O)Nc3ccc(Cl)cc3C2c2ccc(F)cc2)CC1 (centres undefined) | inconclusive: 17.8 µM [inhibitor, full curve, poor fit]
COc1ccccc1CNC(=O)c1oc2ccc3c(c2c1C)C(=O)CC(C)(C)O3 | inconclusive: 44.7 µM [inhibitor, partial curve, poor fit]
CC1=Nc2cc(C(=O)NCCc3ccc(Cl)cc3)ccc2Sc2c(C)ccc(C)c21 | inconclusive: 20 µM [inhibitor, single point]
Cc1ccc(-n2ncc3c(NC4CCCCCC4)ncnc32)cc1C | inconclusive: 25.1 µM [inhibitor, single point]
CC1CCN(C(=O)c2cccc(NC(=O)c3nsc4ccccc34)c2)CC1 | inconclusive: 50.1 µM [inhibitor, partial curve, poor fit]
Cc1c(C(=O)NC(C)c2ccccc2)sc2nc3n(c(=O)c12)CCCC3 (centres undefined) | inconclusive: 35.5 µM [inhibitor, partial curve, poor fit]
O=C(NCc1ccccc1)c1ccc2oc(=O)n(Cc3ccccc3)c2c1 | inconclusive: 39.8 µM [inhibitor, partial curve]
CCOC(=O)c1c(Oc2ccc(C(C)=O)cc2)nnc(-c2ccccc2)c1-c1ccccc1 | inconclusive: 44.7 µM [inhibitor, partial curve, poor fit]
CNC(=O)NC(=O)C(C)Sc1cccc2cccnc12 (centres undefined) | inactive
COc1ccc(C(=O)NCCn2cc(SCC(=O)Nc3ccc4c(c3)OCCO4)c3ccccc32)cc1OC | inconclusive: 56.2 µM [inhibitor, partial curve, poor fit]
CCN(CC)CCCNC(=O)c1ccc2c(Cl)c3c(nc2c1)CCCC3 | inconclusive: 50.1 µM [inhibitor, partial curve, poor fit]
Cc1ccc(OCCCSc2nc(-c3ccc(C(C)(C)C)cc3)nc3cc(=O)[nH]n23)cc1C | active: 44.7 µM
Cc1ccc(C(=O)Cn2c(Cl)nc3c2c(=O)n(C)c(=O)n3C)c(C)c1 | inactive
Cc1cc(C)cc(NC(=O)CCC(=O)N2CCSc3ccccc32)c1 | inconclusive: 89.1 µM [inhibitor, single point]
Cc1nc(-c2ccncc2)[nH]c(=O)c1CC(=O)N(C)C1CCCCC1 | active: 28.2 µM
O=C(NCCCc1nc2ccccc2n1Cc1ccccc1)C1CCCCC1 | inconclusive: 25.1 µM [inhibitor, partial curve, poor fit]
CC(=O)c1cccc(NC(=O)CN2C(=O)c3cccnc3Sc3ccccc32)c1 | inactive
Cc1ccc2nc(-c3cc(C)sc3C)cc(C(=O)O)c2c1 | inactive

Structure (SMILES) | Potency
O=C(c1cccs1)N(Cc1ccccc1)Cc1ccccc1 | inconclusive: 28.2 µM [inhibitor, partial curve, poor fit]
CCc1cc(C(=O)Nc2sc(Cc3ccccc3)cc2C(N)=O)cs1 | inactive
CCOC(=O)c1cnc2ccc(C(=O)OC)cc2c1Nc1ccc(N2CCOCC2)cc1 | inconclusive: 100 µM [inhibitor, single point]
CC(C)(C)c1cc(C(C)(C)C)c2oc(=O)c(-c3nc4ccc(C(=O)O)cc4[nH]3)cc2c1 | inconclusive: 100 µM [inhibitor, single point]
CC1CCN(Cc2c(O)ccc3c(=O)c(-c4ccc(Cl)cc4)c(C(F)(F)F)oc23)CC1 | inactive
COc1ccccc1CNC(=O)c1ccc2c(c1)CCN2S(=O)(=O)c1ccc(Cl)cc1 | inconclusive: 3.55 µM [inhibitor, full curve, poor fit]
Cc1ccc2c(c1)c(=O)c(S(=O)(=O)c1ccc(C)c(C)c1)cn2CC(=O)Nc1ccccc1 | inconclusive: 14.1 µM [inhibitor, full curve, poor fit]
O=C(c1ccc2c(c1)N(Cc1ccccc1)C(=O)c1ccccc1S2=O)N1CCC(Cc2ccccc2)CC1 (centres undefined) | inconclusive: 31.6 µM [inhibitor, full curve, poor fit]
Cc1cc(Cl)ccc1OCC(=O)N(Cc1ccc(N(C)C)cc1)CC1CCCO1 (centres undefined) | inconclusive: 79.4 µM [inhibitor, partial curve]
COC(=O)c1cc(NC(=O)c2ccc3c(c2)N(Cc2cccc(Cl)c2)C(=O)c2ccccc2S3=O)cc(C(=O)OC)c1 (centres undefined) | inconclusive: 31.6 µM [inhibitor, full curve, poor fit]
CCCCCN1C(C(=O)c2ccccc2)=C(NC(C)=O)c2ccccc2S1(=O)=O | inconclusive: 39.8 µM [inhibitor, single point]
CCc1ccc2nc(/N=C(\N)NC(=O)c3ccccc3N)nc(C)c2c1 | inconclusive: 22.4 µM [inhibitor, full curve]
Cc1cccc(-c2nc(C#N)c(NCc3ccccc3)o2)c1 | inactive
CC1CC1C(=O)Nc1cc(C(C)(C)C)ccc1O (centres undefined) | inactive
O=C(c1ccc(F)cc1Cl)N1CCN(c2cn[nH]c(=O)c2Cl)CC1 | inactive
CC(CNC(=O)CCCn1c(=O)c2cccn2c2ccccc21)c1ccccc1 (centres undefined) | inconclusive: 50.1 µM [inhibitor, partial curve, poor fit]
CC(C)N(Cc1ccccc1)C(=O)CN1C(=O)COc2ccc(S(=O)(=O)N3CCCCCC3)cc21 | inconclusive: 100 µM [inhibitor, partial curve, poor fit]
O=C(O)c1ccc2c(c1)N(Cc1ccc(F)cc1Cl)C(=O)c1ccccc1S2 | inconclusive: 25.1 µM [inhibitor, partial curve, poor fit]
Cc1ccc(-c2nnc(Nc3cccc(O)c3)c3ccccc23)cc1S(=O)(=O)N1CCCCC1 | inconclusive: 31.6 µM [inhibitor, partial curve, poor fit]
COc1ccc(OC)c(NC(=O)NC(C)C(=O)N2CCc3ccccc32)c1 (centres undefined) | inactive

— PubChem BioAssay AID1347428 (National Center for Advancing Translational Sciences (NCATS), 2020)
